# Experimental data reported in the BET-seq Pho4 binding data (Le et al. 2018).
# This is one part of the list. The energies were worked out here from pooled read counts, against the library average; single values are noisy.
# Biological target: T1, Pho4 (S. cerevisiae) (UniProt P07270)
# T1 sequence: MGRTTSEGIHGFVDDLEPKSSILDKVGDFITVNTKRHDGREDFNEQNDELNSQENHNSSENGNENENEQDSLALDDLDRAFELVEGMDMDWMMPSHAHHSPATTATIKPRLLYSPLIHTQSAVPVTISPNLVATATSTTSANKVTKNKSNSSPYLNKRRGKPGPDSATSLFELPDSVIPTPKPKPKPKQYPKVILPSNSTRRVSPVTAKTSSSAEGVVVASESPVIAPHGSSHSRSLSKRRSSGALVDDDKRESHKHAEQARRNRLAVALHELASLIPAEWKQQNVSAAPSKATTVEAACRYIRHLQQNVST
# Assay: relative binding free energy (BET-seq); higher = weaker binding
# Settings: reference: library average
row,Sequence,relative binding free energy [kcal/mol]
1,GTGTACACGTGAGGAA,0.29
2,TGCTTCACGTGGGTAG,0.05
3,GCGGGCACGTGGGATG,-0.14
4,GATGTCACGTGTATTA,0.18
5,GGATGCACGTGTAGCG,-0.07
6,GTAGTCACGTGTATTT,0.19
7,TCAATCACGTGTATGA,0.11
8,GATTTCACGTGAAATG,0.32
9,TGTGCCACGTGCGAGG,-0.17
10,TAGTTCACGTGGGCTT,0.24
11,CAAAGCACGTGGGTGG,-0.31
12,AAATACACGTGAGTGT,0.21
13,GGGAGCACGTGACGTA,0.03
14,CGTTACACGTGATGGT,0.1
15,CTTCGCACGTGGGGTG,-0.34
16,AATGACACGTGGGATA,-0.07
17,AAGTGCACGTGGCGGT,-0.17
18,GGACGCACGTGTAAGT,0.1
19,TTCTTCACGTGGGCTG,0.21
20,TTCTGCACGTGGAGGC,0.1
21,CTTTTCACGTGTCTGG,0.27
22,TAGTGCACGTGGTCGT,-0.11
23,GTGTGCACGTGAGCCG,0.19
24,TTGGGCACGTGTTCGA,-0.09
25,AGGGCCACGTGGCGGG,-0.26

row,Sequence,relative binding free energy [kcal/mol]
1,ACCGTCACGTGGTGTG,0.01
2,GTATACACGTGTGTGC,0.01
3,GCGGGCACGTGCAGAG,0.04
4,AATTACACGTGGTTCG,0.02
5,GGAGGCACGTGTTAGT,-0.08
6,CATGGCACGTGGCTGG,-0.26
7,ATACTCACGTGCGGGG,0.18
8,ATGATCACGTGTCTTT,0.12
9,ATGTTCACGTGGGACT,0.15
10,ATGTACACGTGTGGGT,0.16
11,TCGTTCACGTGTCTTT,0.39
12,TGGGTCACGTGCAATG,0.15
13,TCTTGCACGTGAGAGG,0.22
14,GATGCCACGTGAGAGG,0.3
15,TGTGGCACGTGTTCAG,-0.06
16,AATGTCACGTGACGAG,0.37
17,TTTTACACGTGCTGTG,0.24
18,GAGGGCACGTGTATTG,-0.15
19,TTTTTCACGTGAGCAA,0.32
20,TGGAACACGTGGAGTG,0.02
21,TAAATCACGTGGGTTC,-0.05
22,TGTTCCACGTGGAGTT,0.06
23,TGAGTCACGTGGACTT,0.11
24,ATAGTCACGTGGGGTC,-0.01
25,AGCAGCACGTGGGGCT,-0.12

row,Sequence,relative binding free energy [kcal/mol]
1,TCGGGCACGTGTGCTG,-0.09
2,GGGTCCACGTGGTAAG,-0.01
3,TTGTTCACGTGTGTAT,0.29
4,ATAGTCACGTGCAGGG,0.02
5,CTTAGCACGTGGTGGA,-0.11
6,TAGGACACGTGGGGTG,-0.18
7,CCCGGCACGTGGTTGG,-0.05
8,CTTGGCACGTGAGGTG,0.18
9,TTAGGCACGTGCGGAT,-0.17
10,AGCTGCACGTGAGGAG,0.28
11,AGAAGCACGTGGCTGG,-0.11
12,ATTGTCACGTGGAAGG,0.28
13,ACGTTCACGTGGGAAT,0.13
14,ATCTTCACGTGGTGGC,0.24
15,TGGTTCACGTGGGACA,0.08
16,GGATGCACGTGCTGGA,-0.06
17,TATTACACGTGGTGCG,-0.13
18,TCTGTCACGTGTACGG,0.02
19,AATCACACGTGGTTTG,0.01
20,ATTTGCACGTGGGGTC,-0.12
21,AGGTACACGTGGAGAG,0.19
22,TGAGGCACGTGGGAGC,-0.14
23,GGTTTCACGTGGTCGA,0.17
24,AATGGCACGTGGTGTA,-0.12
25,AGGAACACGTGTTGGT,0.12

row,Sequence,relative binding free energy [kcal/mol]
1,CGTGGCACGTGGTGAG,-0.11
2,CTGAGCACGTGGCAGG,-0.12
3,CAGAGCACGTGAGGGG,0.18
4,TGGTGCACGTGCTGTT,-0.11
5,AGTTACACGTGAGATA,0.33
6,ATGGTCACGTGCATGT,-0.02
7,GGGCTCACGTGGCTTG,0.28
8,GGAATCACGTGCGTGT,0.06
9,ACTGTCACGTGCTGTG,0.05
10,CGAGGCACGTGATTGG,0.13
11,GACGTCACGTGTGTGG,0.1
12,CCGGACACGTGGGGGG,-0.13
13,CGAGTCACGTGCGGTT,0.2
14,CTAGTCACGTGGTGGG,-0.02
15,TGTGTCACGTGAGACT,0.31
16,AGTGGCACGTGTGCCT,-0.1
17,ACAGGCACGTGAAGTT,0.24
18,TACGTCACGTGAAGTT,0.4
19,GCGGACACGTGGTGCG,-0.05
20,GGAAGCACGTGGATGT,-0.04
21,ATGGGCACGTGCAGCG,-0.04
22,ACAAGCACGTGAGGGG,0.19
23,GGGGGCACGTGGATAG,-0.06
24,TCGTACACGTGGCGGT,0.06
25,GGTGACACGTGCTAGG,0.02

row,Sequence,relative binding free energy [kcal/mol]
1,CGTTGCACGTGTTCGG,-0.04
2,TGGCTCACGTGGGTAT,0.07
3,TTTAACACGTGCTGGT,-0.06
4,TAAGTCACGTGTCGGC,0.19
5,GGGATCACGTGCGGGT,0.13
6,GTGTCCACGTGGAAGG,0.23
7,TCTGTCACGTGGGGGG,-0.06
8,GGGGACACGTGGGCCG,-0.02
9,TATAACACGTGGGGGG,-0.16
10,TAGGGCACGTGACATG,-0.05
11,GAATGCACGTGGAGTA,0.09
12,TTGACCACGTGTTGAT,0.11
13,GATGTCACGTGAGTGC,0.26
14,TTGGGCACGTGTAGGT,0
15,TATTTCACGTGGGCCT,0.15
16,TGGAGCACGTGGGCCT,-0.29
17,TTCTTCACGTGTTATA,0.26
18,AGCTTCACGTGTGTCG,0.28
19,CTCTGCACGTGGGTTT,-0.2
20,CATGTCACGTGATAAG,0.38
21,GAGCTCACGTGAGGGC,0.41
22,GTCGGCACGTGTTGGG,0.02
23,GATGACACGTGTTAGG,0.08
24,GTGTACACGTGGGCCT,-0.13
25,TGCATCACGTGTGAGT,0.23

row,Sequence,relative binding free energy [kcal/mol]
1,CAATTCACGTGTTTGG,0.18
2,TAAGACACGTGGAGTG,0.03
3,GTAGTCACGTGGGCAT,0.04
4,AGGCGCACGTGTATGA,0
5,GGGTGCACGTGCCTGG,-0.11
6,TAGTACACGTGATTGA,0.13
7,GTTCACACGTGGAGGG,0.25
8,TAAGTCACGTGGGTGA,-0.08
9,GGGTTCACGTGGGACT,0.24
10,TAGGGCACGTGGGGTA,-0.26
11,ATTCTCACGTGTATTA,0.07
12,GGAATCACGTGTTTTG,0.21
13,TATCTCACGTGTTTAG,0.19
14,ATTGTCACGTGTGTAG,0.12
15,CTGAACACGTGGTGTG,-0.12
16,TTTGGCACGTGTGCTG,-0.08
17,GGTTTCACGTGTAGGA,0.25
18,TCGGCCACGTGGTTTT,-0.01
19,GCTATCACGTGTGATT,0.38
20,TGAGTCACGTGGCATG,-0.05
21,GTGTTCACGTGCTGTT,0.26
